Values marked as one replicate rest on one cluster of the flow cell; about a third of the high ones do not repeat.
tested on: ATP; assay: switch fluorescence ratio, 500 uM ATP over buffer (Cy3 cluster intensity, sum of 5 cycles each) (fold (ratio)); higher = stronger signal-on switching upon ATP binding; sequences stand for … in TCGTCGGCAGCGTCAGATGTGTATAAGAGACAGTTTTTTTTTTTTTTTTTTTTTTTTT…TC; details: aptamer strand: ATP DNA aptamer (quencher-CACCTGGGGGAGTATTGCGGAGGAAGG + anchor), 100 nM annealed; ATP concentration: 500 uM; one replicate
Procedure, shortened: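 Five buffer/ATP imaging cycles were run on Cy3-labelled switching-strand clusters on a modified Illumina MiSeq flow-cell, with NaOH stripping and re-annealing between cycles. In each cycle, clusters annealed to 100 nM quencher-labelled ATP aptamer were imaged in selection buffer, then after 15 min with 500 uM ATP at 22 °C. Per cluster, the fluorescence ratio is summed target-cycle over summed buffer-cycle Cy3 intensity, averaged per switch-domain sequence. Only clusters within 100-1000 RFU were kept.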
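Also: ATP exposure 15 min at 22 °C before imaging.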

Sequence | switch fluorescence ratio
GATTGGTTG | 0.973
CGTCGGTTGA | 1.01
ACTGGTTACC | 1.06
GCGGGGGATT | 0.989
ATATCCCGGG | 1.04
CGCTCGTGCC | 1.02
AGTACCAACT | 1.1
TCGAGAATAA | 0.983
CGCCATATCA | 0.962
GTTTAAGGCG | 0.993
ACTCTTGAGC | 0.982
AAGAATTTGG | 0.932
ATCGGAAATC | 1.06
GAGCATGTTG | 1.02
AATATGAA | 0.984
ATGGTTCGTA | 0.989
AAGTCGTACC | 0.974
CCCCTGACCC | 1.14
TGTCACGTAG | 1.05
AGAGGTATGT | 0.993
TTCACATCTC | 0.947
TAGAGTAAAT | 1.03
CCTATCATTT | 0.993

Sequence | switch fluorescence ratio
TACCAATGG | 1.02
TTTAGCGCAA | 1.72
CGGGTCCGCC | 0.959
AAAATGTGTC | 1
GTATGTCAGA | 0.982
TTTAAGCCAA | 1.01
CGGTAACGTC | 0.953
TCAGGGCTGG | 0.991
TCTCGGGCGG | 0.988
ATCACTCCAT | 1.07
CCGTACTTCC | 2.11
TTCCTGCGGA | 1.04
ACTAGAGTTT | 1.04
TGATGCGGCT | 1.01
TACTCTAAA | 1.13
AATTCGTGGC | 1.04
ACTTTTTGA | 1
TGCTGGAGTC | 1.03
AAGAAGCGAG | 1.4
TACGATCGTA | 1.02
ACTACGCCAG | 1.29
AGATATATG | 1
CTATAGGTGG | 1.67

Sequence | switch fluorescence ratio
AGAGCAAGGG | 1.09
TTATGGTCGT | 1.03
CGTGGTACGT | 0.969
GGGTATTAGG | 0.943
CAACATCATG | 1.01
CATCGACAGC | 1.08
CGGAACGGGC | 0.966
ATGGGTGA | 1.01
TGTTAAGTG | 0.95
CACTGAATTT | 0.988
CTGATGATGC | 1.29
TGAGAGTTGG | 1.01
ATCCAACGGT | 1.07
TGATTGCAGG | 1.01
TAGTTAGGGA | 0.988
TGTGCGAAG | 0.997
TTAGGGTTGA | 1.01
CCGGCCGTA | 1.08
ATCATTCTTA | 0.961
CTTGATGAAG | 0.986
ATTGTAAGGT | 0.979
GCAGCCTGCC | 1.14
TAGCCTTGGG | 1.01

Sequence | switch fluorescence ratio
CCAAGGCGGC | 1.07
GCTAATAATG | 0.97
TTACATGTG | 0.984
AATGAATCTT | 1
ATAAGGGGGG | 0.996
TTATGGACAA | 1.02
GCAGCGGGAA | 1.12
GGGCGAGGAT | 0.998
CATCCTGAGC | 1.08
TGACTCATTT | 1.06
AATACTTACG | 1.59
TCGCCTTCTG | 1.05
CCTCTCCGGA | 1.17
TCGGGGATGT | 1.01
GGGATCTAAT | 0.991
GGTGTTCATA | 0.99
TGCCGCAGGC | 0.972
ACGTGATTGT | 1.03
CAGTTCCTA | 0.993
ATATGATCCC | 0.959
ATACGTAACG | 1.12
ACATTTAGAT | 1.03
CTAGTAGGTC | 0.998

Sequence | switch fluorescence ratio
CACTGTCTCA | 1.04
TCATAGATTG | 1
CCAATACGGA | 1.39
TTCTCCCTAA | 1.18
ATAGAGCCGC | 0.957
CGGATCCGCG | 1.01
CCGCTGATGG | 3.27
CCCCGAACA | 1.28
GAGTTAGGAG | 1.04
AGGGCTGGAC | 1.01
AACACGGACA | 1.52
GAGGACCTAC | 1.07
GTCCGGGTTG | 1.26
GGAATTTTCA | 0.988
CATCGCCGTT | 1.02
CAACAGGCTA | 1.01
TAAACAACGG | 1.06
AACCTGGTC | 0.97
TTGACGGACC | 1.27
CGGGTCAAGG | 0.97
GCAAGGGTGA | 1.05
CGTGGACAAG | 0.982
AGTCTCGGGC | 0.962

Sequence | switch fluorescence ratio
CAATTTCCT | 1.09
TGCATCCAGT | 0.992
CCGGTTTATT | 0.982
TGCAAAGCTA | 0.968
ATTTTCCT | 1.04
CTTATTGCGC | 1.09
CAACGACAAG | 1.05
CGAGAGATGA | 1.01
TATTCAGAGA | 1.02
ACTCATTTCA | 1.05
TAGCAATGGA | 1.36
AATTGATTAT | 1.02
TATGCATTCA | 1.03
TTGTAGCAGA | 1.36
ATTTGACTCA | 1.05
TATGAAATTT | 0.986
CATACTCTCA | 1.1
GTCCATCGTT | 0.997
AATAACCATG | 1.05
GGAGGTCAAA | 0.98
AAGATGTTTC | 0.995
CCGGATTAGT | 1.18
ACTCTCGAAA | 1.56

Sequence | switch fluorescence ratio
TAAGCACGTC | 1.16
GCCCTGTCGA | 1.01
TCACTATTAT | 0.973
AGGGATGAAG | 1.02
GGGTTACCTA | 0.973
AGCCGGCGA | 1.06
TTGCTGGTCC | 1.02
GTCATTCGGT | 0.988
TAGGGGCCCT | 1.04
TATTGTTTAG | 1.01
AGTCAGTTCT | 0.972
AAGAAGAATC | 0.984
TAGCGCATTA | 1.15
TATCCTAAGA | 1.07
TGATGGAGCG | 0.986
AAATTTCGAA | 0.994
TTATTCAATT | 1.06
TGCGTTCCTC | 2.08
ACTTCAGGGC | 1.07

— the supplement of paper PMC10126150
